# In the supplement of paper PMC8728848:
# This is one part of the list.
# B1: MGL2 (Mus musculus), Q8JZN1 (protein)
# chain: MTMRYENFQNLEREEKNQEMRNGDKKGGMESPKFALIPSQSFLWRILSWTHLLLFSLGLSLLLLVVISVIGSQNSQLRRDLGTLRAILDNTTSKIKAEFQSLDSRADNFEKGISSLKVDVEDHRQELQAGRDLSQKVTSLESTLEKREQALKTDLSDLTDHVQQLETDLKALTCQLANLKNNGSEVACCPLHWTEHEGSCYWFSESEKSWPEADKYCRLENSHLVVVNSLEEQNFLQNRLANVLSWMGLTDQNGPWRWVDGTDFDKGFKNWRPLQPDNWHGHMLGGGEDCAHFSYDGRWNDDVCQRHYHWICETELGKASSAHSPQLIASVP
# Legend:
# Assay in all cases: glycan array binding signal (z-score within array); higher = stronger binding
# Details in all cases: glycan notation: IUPAC condensed, linker removed
# [1] = molecular target: Neu5Ac(a2-3)Gal(b1-3)GlcNAc6S
# How it was run: (§1)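 Glycan array data came from 3228 arrays in the Consortium for Functional Glycomics database, and only arrays with an available protein sequence were kept. Glycan names were put into IUPAC-condensed notation, and columns mapping to the same glycan were averaged. The binding signal is a within-array Z-score, averaged across arrays of one protein sequence run at different concentrations or buffers and across linkers. A negative Z-score can be read as non-binding.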
# [2] = molecular target: Neu5Ac(a2-3)Gal(b1-3)[Fuc(a1-4)]GlcNAc
# How it was run: as §1
# [3] = molecular target: Neu5Ac(a2-3)Gal(b1-3)[Fuc(a1-4)]GlcNAc(b1-3)Gal(b1-3)[Fuc(a1-4)]GlcNAc
# How it was run: as §1
# [4] = molecular target: Neu5Ac(a2-3)Gal(b1-3)[Fuc(a1-4)]GlcNAc(b1-3)Gal(b1-4)[Fuc(a1-3)]GlcNAc
# How it was run: as §1
# [5] = molecular target: Neu5Ac(a2-3)Gal(b1-3)[GlcNAc(b1-6)]GalNAc
# How it was run: as §1
# [6] = molecular target: Neu5Ac(a2-3)Gal(b1-3)[Neu5Ac(a2-6)]GalNAc
# How it was run: as §1
# [7] = molecular target: Neu5Ac(a2-3)Gal(b1-3)[Neu5Ac(a2-6)]GlcNAc(b1-3)[Fuc(a1-3)[Gal(b1-4)]GlcNAc(b1-6)]Gal(b1-4)Glc
# How it was run: as §1
# [8] = molecular target: Neu5Ac(a2-3)Gal(b1-3)]Neu5Ac(a2-3)Gal(b1-4)]GlcNAc
# How it was run: as §1
# Neu5Ac(a2-3)Gal(b1-4)Glc = molecular target: Neu5Ac(a2-3)Gal(b1-4)Glc
# How it was run: as §1
# [9] = molecular target: Neu5Ac(a2-3)Gal(b1-4)GlcNAc
# How it was run: as §1
# [10] = molecular target: Neu5Ac(a2-3)Gal(b1-4)GlcNAc(b1-2)Man
# How it was run: as §1
# [11] = molecular target: Neu5Ac(a2-3)Gal(b1-4)GlcNAc(b1-2)Man(a1-3)[GlcNAc(b1-4)][Neu5Ac(a2-3)Gal(b1-4)GlcNAc(b1-2)Man(a1-6)]Man(b1-4)GlcNAc(b1-4)GlcNAc
# How it was run: as §1
# [12] = molecular target: Neu5Ac(a2-3)Gal(b1-4)GlcNAc(b1-2)Man(a1-3)[Neu5Ac(a2-3)Gal(b1-4)GlcNAc(b1-2)Man(a1-6)]Man(b1-4)GlcNAc(b1-4)GlcNAc
# How it was run: as §1
# [13] = molecular target: Neu5Ac(a2-3)Gal(b1-4)GlcNAc(b1-2)Man(a1-3)[Neu5Ac(a2-3)Gal(b1-4)GlcNAc(b1-2)Man(a1-6)]Man(b1-4)GlcNAc(b1-4)[Fuc(a1-6)]GlcNAc
# How it was run: as §1
# [14] = molecular target: Neu5Ac(a2-3)Gal(b1-4)GlcNAc(b1-2)Man(a1-3)[Neu5Ac(a2-6)Gal(b1-4)GlcNAc(b1-2)Man(a1-6)]Man(b1-4)GlcNAc(b1-4)GlcNAc
# How it was run: as §1
# [15] = molecular target: Neu5Ac(a2-3)Gal(b1-4)GlcNAc(b1-2)[Neu5Ac(a2-3)Gal(b1-4)GlcNAc(b1-4)]Man(a1-3)[GlcNAc(b1-4)][Neu5Ac(a2-3)Gal(b1-4)GlcNAc(b1-2)[Neu5Ac(a2-3)Gal(b1-4)GlcNAc(b1-6)]Man(a1-6)]Man(b1-4)GlcNAc(b1-4)GlcNAc
# How it was run: as §1
# [16] = molecular target: Neu5Ac(a2-3)Gal(b1-4)GlcNAc(b1-2)[Neu5Ac(a2-3)Gal(b1-4)GlcNAc(b1-4)]Man(a1-3)[GlcNAc(b1-4)][Neu5Ac(a2-3)Gal(b1-4)GlcNAc(b1-4)Man(a1-6)]Man(b1-4)GlcNAc(b1-4)GlcNAc
# How it was run: as §1
# [17] = molecular target: Neu5Ac(a2-3)Gal(b1-4)GlcNAc(b1-2)[Neu5Ac(a2-3)Gal(b1-4)GlcNAc(b1-6)]Man(a1-6)[Neu5Ac(a2-3)Gal(b1-4)GlcNAc(b1-2)Man(a1-3)]Man(b1-4)GlcNAc(b1-4)GlcNAc
# How it was run: as §1
# [18] = molecular target: Neu5Ac(a2-3)Gal(b1-4)GlcNAc(b1-2)[Neu5Ac(a2-3)Gal(b1-4)GlcNAc(b1-6)]Man(a1-6)[Neu5Ac(a2-3)Gal(b1-4)GlcNAc(b1-2)Man(a1-3)][GlcNAc(b1-4)]Man(b1-4)GlcNAc(b1-4)GlcNAc
# How it was run: as §1
# [19] = molecular target: Neu5Ac(a2-3)Gal(b1-4)GlcNAc(b1-3)Gal
# How it was run: as §1
# [20] = molecular target: Neu5Ac(a2-3)Gal(b1-4)GlcNAc(b1-3)Gal(b1-3)GlcNAc
# How it was run: as §1
# [21] = molecular target: Neu5Ac(a2-3)Gal(b1-4)GlcNAc(b1-3)Gal(b1-4)GlcNAc
# How it was run: as §1
# [22] = molecular target: Neu5Ac(a2-3)Gal(b1-4)GlcNAc(b1-3)Gal(b1-4)GlcNAc(b1-2)Man(a1-3)[Neu5Ac(a2-3)Gal(b1-4)GlcNAc(b1-3)Gal(b1-4)GlcNAc(b1-2)Man(a1-6)]Man(b1-4)GlcNAc(b1-4)GlcNAc
# How it was run: as §1
# [23] = molecular target: Neu5Ac(a2-3)Gal(b1-4)GlcNAc(b1-3)Gal(b1-4)GlcNAc(b1-3)Gal(b1-4)GlcNAc
# How it was run: as §1
# [24] = molecular target: Neu5Ac(a2-3)Gal(b1-4)GlcNAc(b1-3)Gal(b1-4)GlcNAc(b1-3)Gal(b1-4)GlcNAc(b1-2)Man(a1-3)[Neu5Ac(a2-3)Gal(b1-4)GlcNAc(b1-3)Gal(b1-4)GlcNAc(b1-3)Gal(b1-4)GlcNAc(b1-2)Man(a1-6)]GalNAc
# How it was run: as §1
# [25] = molecular target: Neu5Ac(a2-3)Gal(b1-4)GlcNAc(b1-3)Gal(b1-4)GlcNAc(b1-3)GalNAc
# How it was run: as §1
# [26] = molecular target: Neu5Ac(a2-3)Gal(b1-4)GlcNAc(b1-3)Gal(b1-4)GlcNAc(b1-3)[Neu5Ac(a2-3)Gal(b1-4)GlcNAc(b1-3)Gal(b1-4)GlcNAc(b1-6)]GalNAc
# How it was run: as §1
# [27] = molecular target: Neu5Ac(a2-3)Gal(b1-4)GlcNAc(b1-3)Gal(b1-4)GlcNAc(b1-6)[Gal(b1-3)]GalNAc
# How it was run: as §1
# [28] = molecular target: Neu5Ac(a2-3)Gal(b1-4)GlcNAc(b1-3)Gal(b1-4)[Fuc(a1-3)]GlcNAc
# How it was run: as §1
# [29] = molecular target: Neu5Ac(a2-3)Gal(b1-4)GlcNAc(b1-3)GalNAc
# How it was run: as §1
binder,measurement,setting,value
B1,glycan array binding signal (z-score),[1],0.221
same,glycan array binding signal (z-score),[2],-0.173
same,glycan array binding signal (z-score),[3],-0.126
same,glycan array binding signal (z-score),[4],-0.223
same,glycan array binding signal (z-score),[5],-0.223
same,glycan array binding signal (z-score),[6],-0.073
same,glycan array binding signal (z-score),[7],-0.24
same,glycan array binding signal (z-score),[8],-0.169
same,glycan array binding signal (z-score),Neu5Ac(a2-3)Gal(b1-4)Glc,-0.191
same,glycan array binding signal (z-score),[9],0.136
same,glycan array binding signal (z-score),[10],-0.034
same,glycan array binding signal (z-score),[11],-0.204
same,glycan array binding signal (z-score),[12],-0.193
same,glycan array binding signal (z-score),[13],-0.133
same,glycan array binding signal (z-score),[14],-0.135
same,glycan array binding signal (z-score),[15],-0.098
same,glycan array binding signal (z-score),[16],-0.2
same,glycan array binding signal (z-score),[17],-0.042
same,glycan array binding signal (z-score),[18],-0.247
same,glycan array binding signal (z-score),[19],-0.3
same,glycan array binding signal (z-score),[20],-0.278
same,glycan array binding signal (z-score),[21],-0.262
same,glycan array binding signal (z-score),[22],0.166
same,glycan array binding signal (z-score),[23],-0.179
same,glycan array binding signal (z-score),[24],0.431
same,glycan array binding signal (z-score),[25],-0.204
same,glycan array binding signal (z-score),[26],-0.027
same,glycan array binding signal (z-score),[27],-0.096
same,glycan array binding signal (z-score),[28],-0.193
same,glycan array binding signal (z-score),[29],-0.189
